Several values for one entry are separate records, joined by “and”; a condition that tells them apart may be missing. Equal values may be shown once. The whole screen tested about 16,000 compounds, of which about 40 (0.2%) were called active. Roughly 1% stayed inconclusive and do not appear here. Calls come from the whole dose curve; as a rule, active = well fitted activation curve with a large enough effect; inconclusive = small, poorly fitted or top-dose-only effect, or another doubt; inactive = no such curve, though single readings can be large or run the other way. The list shows a part of the results.
Molecular target: Rap guanine nucleotide exchange factor 4 (Homo sapiens) (UniProt Q8WZA2)
Assay: Validation qHTS for agonist of cAMP-regulated guanine nucleotide exchange factor 4 (EPAC2);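 note: exchange makes BODIPY-GDP fluorescence drop when released from Rap1B; series mostly up to about 150 µM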
Conditions: EPAC2 Rap1B BODIPY-GDP exchange, fluorescence; activation: stronger effect = higher value
In short: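 Fluorescent exchange assay: 100 nM EPAC2 with 250 nM RAP1B-BODIPY-GDP and 50 uM GDP; compound added, 5 min at room temperature, then read (ex 480/em 540 nm) every 5 min for 30 min. Normalized to 6.5 mM cAMP agonist control.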
% is set by controls: 0 for no effect and ±100 for the full control effect.

Sequence of UniProt Q8WZA2 (Q8WZA2 whole entry, looked up): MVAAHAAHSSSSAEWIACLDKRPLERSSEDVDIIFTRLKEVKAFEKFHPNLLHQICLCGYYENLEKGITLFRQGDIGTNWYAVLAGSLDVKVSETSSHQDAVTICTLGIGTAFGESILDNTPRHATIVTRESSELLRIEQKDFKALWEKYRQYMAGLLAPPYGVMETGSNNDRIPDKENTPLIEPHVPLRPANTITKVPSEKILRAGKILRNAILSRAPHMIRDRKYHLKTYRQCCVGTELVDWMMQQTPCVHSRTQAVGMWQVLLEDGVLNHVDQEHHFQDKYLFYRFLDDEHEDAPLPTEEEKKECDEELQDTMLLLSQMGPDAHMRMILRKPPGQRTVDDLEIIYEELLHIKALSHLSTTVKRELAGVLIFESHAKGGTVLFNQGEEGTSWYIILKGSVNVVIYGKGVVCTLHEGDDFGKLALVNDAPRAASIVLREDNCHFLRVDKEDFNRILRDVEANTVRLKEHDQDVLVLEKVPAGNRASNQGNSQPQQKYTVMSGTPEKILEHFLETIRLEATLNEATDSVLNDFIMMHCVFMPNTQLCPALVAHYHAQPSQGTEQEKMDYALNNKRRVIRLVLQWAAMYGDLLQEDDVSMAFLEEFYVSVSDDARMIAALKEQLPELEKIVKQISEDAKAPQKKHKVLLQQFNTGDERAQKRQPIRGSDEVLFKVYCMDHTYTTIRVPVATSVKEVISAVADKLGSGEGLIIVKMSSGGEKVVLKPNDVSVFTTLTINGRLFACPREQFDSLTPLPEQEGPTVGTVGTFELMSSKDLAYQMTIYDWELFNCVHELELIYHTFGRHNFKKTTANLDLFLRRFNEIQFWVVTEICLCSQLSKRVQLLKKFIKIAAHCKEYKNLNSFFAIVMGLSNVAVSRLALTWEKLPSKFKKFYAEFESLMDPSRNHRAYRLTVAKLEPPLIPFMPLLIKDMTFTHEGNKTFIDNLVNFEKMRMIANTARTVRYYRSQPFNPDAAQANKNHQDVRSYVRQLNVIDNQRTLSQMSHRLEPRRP

activation, inactive:
N#CCCn1c(=O)c(-c2cc(F)cc(F)c2)nc2cnc(Oc3cccc(Cl)c3)nc21 11.4%
CC(=O)c1ccc(F)c(-c2cc(C)cc3c2OC(CNC(=O)C(C)n2nc(C)cc2C)C3)c1 (configuration not stated) -21.2%
Oc1ccc(O)cc1 12.3% and -2.34% and -7.54%
CCNc1ncc2nc(CCc3ccccc3)c(=O)n(Cc3cccc(OC)c3)c2n1 -0.96%
COc1cc(C)c(CN2C[C@H](Sc3nc4ccccc4[nH]3)C[C@H]2C(=O)N(C)C)cc1C -25%
COCC(=O)N1CCC2(CC1)CN(Cc1cc(C(F)(F)F)cc(C(F)(F)F)c1)C2 -8.19%
O=C1CCN(Cc2ccccc2)CCN1CCSc1ccccc1 -15%
CCC1COCCS(=O)(=O)N1Cc1ccc(Cl)cc1 (configuration not stated) -27.3%
COc1cc2nc(N3CCN(C(=O)C4CCCO4)CC3)nc(N)c2cc1OC (configuration not stated) -11.7% and -31.1%
COc1cccc(-c2ccc3ncnc(Nc4ccccc4)c3c2)c1 -7.85%
OC[C@@H]1O[C@@H](n2cnc3c(NC4CCCC4)ncnc32)[C@H](O)[C@H]1O 2.34%
COc1ccc(SC[C@H](C)CN2CC[C@H](C)CCC2=O)cc1 -21.2%
C[C@H]1C[C@H]2[C@@H]3CCC4=CC(=O)C=C[C@]4(C)[C@@]3(Cl)[C@@H](O)C[C@]2(C)[C@@]1(O)C(=O)CO 21.5%
CCCCCC(N)=O 5.33%
CCCCCCCCN1[C@@H](CC(=O)O)c2cc(F)ccc2S1(=O)=O -2.18%
CN1CCC(CN2c3ccccc3Sc3ccccc32)C1 (configuration not stated) -8.26%
Clc1ccccc1-c1cncnc1NCCN1CCOCC1 -1.3%
O=C(/C=C\c1ccc(O)c(O)c1)O[C@@H](Cc1ccc(O)c(O)c1)C(=O)O 0.738%
c1nc(NC2CCNCC2)c2cc(-c3ccoc3)ccc2n1 -3.52%
Cc1cc(Cl)ccc1OCC(=O)N1CCOc2ccc(CN3C[C@@H](C)O[C@@H](C)C3)cc2C1 1.02%
COc1cc(=O)n2c(c1C(=O)N1CCc3ccccc3C1)CCN(Cc1ccc(CO)o1)CC2 8.51%
COCC(=O)N1CCC[C@@]2(CCN(C(=O)Nc3ccc(OC)cc3)C2)C1 -17.6%
Cc1nc(N=Nc2ccc(C(=O)O)cc2)c(COP(=O)(O)O)c(C=O)c1O -19.7%
CC1CCC(NC(=O)N(CCCl)N=O)CC1 (configuration not stated) -23%
CCNC(=O)c1cc(NC(=O)COC)cc2nc(-c3ccncc3)n(C)c12 5.24%
Cn1cc(-c2nc3cnc(Oc4cccc(Cl)c4)nc3n(CCC#N)c2=O)c2ccccc21 5.52%
Nc1cccc(/C=C/c2ccnc3ccccc23)c1 -2.14%
COc1ccc2c(c1)OC[C@H]1c3cc4c(cc3O[C@@H]21)OCO4 -8.64%
Oc1ccccc1C=NCc1ccccc1 0.802%
CC(C)CN1CC2(CCN(C(=O)c3cccc(F)c3)CC2)C1 -12.2%
COc1ccccc1CNc1nc(-c2ccc(C(=O)N(C)C)cc2)nc2ccccc12 -6.06%
CC(=O)NC(C(=O)O)C(C)(C)SN=O (configuration not stated) -0.864%
Nc1ccc(S(=O)(=O)Nc2ccc(Cl)nn2)cc1 -17.3% and -3.29% and 4.11%
COc1ccc(Oc2ncc3nc(C)c(=O)n(C[C@H]4CCCO4)c3n2)cc1 -5.06%
CCCc1cc(OC)c2c(c1)OCO2 -10.5%
COC(=O)C1CCN(Cc2ccc3c(c2)CN(C(=O)C2CCCN(c4ccccn4)C2)CCO3)CC1 (configuration not stated) -17.4%
Clc1ccccc1-c1nc(Nc2ccncc2)c2ccccc2n1 -31.7%
N#Cc1cccc(-c2nc(N3CCNCC3)c3ccccc3n2)c1 -4.85%
COc1ccc2[nH]cc(CCNc3cc(-c4ccccc4C(F)(F)F)ncn3)c2c1 16%
OC[C@H]1O[C@@H](n2cnc3c(N[C@H]4C[C@H]5CC[C@@H]4C5)ncnc32)[C@H](O)[C@@H]1O 1.6%
Cc1c(C(=O)NCC2Cc3cccc(-c4cncnc4)c3O2)c(-c2ccccc2)nn1-c1ccccc1 (configuration not stated) -8.2%
O=C(c1cnccn1)N1CCC[C@@]2(CCN(c3ccccn3)C2)C1 -0.181%
O=C([C@@H]1CC=C[C@@H]2CCN(C3CCCCC3)C(=O)[C@@H]21)N1CCN(c2ccccc2)CC1 -18%
CC(=O)N[C@@H](CSC/C=C(\C)CCC=C(C)C)C(=O)O -15.3% and 3.11%
COc1cccc(C(=O)NCc2nc(-c3cccc(NC(=O)c4ccoc4C)c3)oc2C)c1OC -1.47%
O=C(NCC1(N2CCOCC2)CCCCCC1)c1cnn(-c2nccc(-c3ccco3)n2)c1C1CC1 -3.02%
COCCn1c(=O)c(-c2cn(C)c3ccccc23)nc2cnc(Oc3ccccc3)nc21 -8.01%
COC(=O)c1cc(CNC(=O)c2cccc(F)c2)cc(NC(=O)c2ccccc2OC)c1 15%
Cn1cccc1C(=O)N1CCC2(CCCN(Cc3ccc(C#N)cc3)C2)CC1 -14.5%
O=C1NC(=O)C(Cc2ccccc2)(C2CCN(Cc3cccn3-c3cccnc3)CC2)N1 (configuration not stated) 2.94%
O=P(O)(O)OCC(O)CO (configuration not stated) 7.31%
NCC1CCCCC1CC(=O)O (configuration not stated) 6.84%
COC(=O)CCC[N+](C)(C)C -12.2%
CC(=O)NCCNc1nc(-c2c(C)noc2C)nc2ccccc12 -0.0513%
O=C(O)Cc1ccc(-c2ccccc2)cc1 15.3%
Clc1ccccc1-c1ccc2ncnc(NC3CCNCC3)c2c1 -3.32%
C[C@@](N)(C(=O)O)[C@@H]1C[C@@H]1C(=O)O -5.81%
